# Measured values taken from PubChem BioAssay AID2675 (National Center for Advancing Translational Sciences (NCATS), 2010).
# The whole screen tested about 280,000 compounds, of which about 100 (0.036%) were called active. The inconclusive results got no clear call from the source; some entries with a clear call stand among them for comparison. The call rests on the fitted dose curve; in most records, active means well fitted inhibition curve with a large enough effect in the signal ratio, with a control signal flat (not every such curve was filed as active); inconclusive means small, poorly fitted or top-dose-only effect, or effect the other way, or a change in a side signal; inactive means no such curve, though single readings can be large or run the other way; the % refers to the signal ratio. Potencies beside an inconclusive call are fits to weak or partial responses and may not hold up. “Side channel” marks fits to a control or component signal instead of the main read-out.
# Target: Muscleblind-like protein 1 (Homo sapiens) (UniProt Q9NR56)
# Assay: qHTS Assay for Inhibitors of MBNL1-poly(CUG) RNA binding
# Settings: TR-FRET MBNL1-His/biotin-(CUG)12 binding, 665/545 ratio; series mostly up to 57.5 µM
# In short: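 His-tagged MBNL1 binding to biotinylated (CUG)12 RNA was measured by TR-FRET using terbium anti-His antibody (0.055 ng/ul final) and streptavidin-XL665 (5 nM final). Compounds were titrated 92 nM to 58 uM; 60 min at room temperature.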
# Potency means the concentration at half of the fitted maximal effect; tags describe the fitted curve by direction and shape or compound fluorescence and quenching.
# Sequence of UniProt Q9NR56 (Q9NR56 whole entry, looked up): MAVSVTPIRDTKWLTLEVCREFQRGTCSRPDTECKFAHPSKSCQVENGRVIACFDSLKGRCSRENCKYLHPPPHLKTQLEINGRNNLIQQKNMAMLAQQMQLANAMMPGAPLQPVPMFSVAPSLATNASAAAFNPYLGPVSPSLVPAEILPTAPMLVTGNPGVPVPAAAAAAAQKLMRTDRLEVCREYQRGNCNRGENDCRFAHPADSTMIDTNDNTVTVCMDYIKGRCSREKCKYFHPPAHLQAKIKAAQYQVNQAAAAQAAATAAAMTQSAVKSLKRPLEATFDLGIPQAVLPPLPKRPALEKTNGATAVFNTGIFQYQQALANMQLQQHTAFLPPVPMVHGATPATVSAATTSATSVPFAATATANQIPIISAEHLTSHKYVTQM
row,SMILES,Potency
1,N#Cc1c2n(c3c(=O)n(CC(=O)c4ccc([N+](=O)[O-])cc4)cnc13)CCCCC2,"inconclusive: 2.51 µM [quencher, side channel, full curve, poor fit]"
2,COc1cc(/C=N/NC(=O)C(=O)Nc2ccccn2)ccc1O,"inconclusive: 10 µM [quencher, side channel, partial curve]"
3,O=C(N/N=C/c1cc(Br)cc(Br)c1O)c1cccc(N2CCCC2=O)c1,inactive
4,CN1CCN(C(=O)/C(=C\c2cccc([N+](=O)[O-])c2)NC(=O)c2cccs2)CC1,"inconclusive: 28.2 µM [quencher, side channel, single point]"
5,CCN(CC)C(=O)CN(C)S(=O)(=O)c1cccc2nsnc12,"inconclusive: 14.1 µM [quencher, side channel, partial curve]"
6,O=C(CCN1C(=O)c2ccccc2C1=O)Nc1ccc(S(=O)(=O)NC2=NCCCCC2)cc1,"inconclusive: 35.5 µM [quencher, side channel, single point]"
7,CCCCCCCn1c(=O)c(C(=O)OC)c(N)c2ccccc21,inactive
8,Cc1ccc(C(=O)c2ccc([N+](=O)[O-])cc2)cc1C,"inconclusive: 4.47 µM [quencher, side channel, full curve]"
9,NC1=NC(=O)S/C1=C\c1ccc(O)cc1,"inconclusive: 10 µM [quencher, side channel, partial curve]"
10,CC(=O)[C@H]1[C@@H]2C(=O)N(c3cccc(Cl)c3)C(=O)[C@@H]2[C@H]2c3ccccc3C=CN21,"inconclusive: 11.2 µM [quencher, side channel, partial curve]"
11,O=C(NCc1ccc(Cl)cc1)C(=O)NCC1OCCN1S(=O)(=O)c1cc(F)ccc1F (stereo unspecified),"inconclusive: 15.8 µM [quencher, side channel, partial curve]"
12,O=C1C(=O)N(Cc2cccs2)c2ccccc21,"inconclusive: 15.8 µM [quencher, partial curve]"
13,CCCCCC(=O)NNC(=O)Cc1ccc([N+](=O)[O-])cc1,"inconclusive: 25.1 µM [quencher, side channel, single point]"
14,COc1ccccc1N1CCN(C(=O)COc2cc(C)ccc2C)CC1,inactive
15,CCOc1ccccc1Nc1ccc(C(=O)O)cc1[N+](=O)[O-],"inconclusive: 25.1 µM [quencher, side channel, single point]"
16,COc1ccc(CN2C(=O)c3cccnc3C2=O)cc1S(=O)(=O)NC(C)C,"inconclusive: 25.1 µM [quencher, single point]"
17,COc1cccc(Oc2ncnc(N)c2[N+](=O)[O-])c1,"inconclusive: 15.8 µM [quencher, side channel, partial curve]"
18,Cc1cc(-n2c(=O)c(C#N)cc3c(=O)n4cccc(C)c4nc32)no1,"inconclusive: 3.16 µM [quencher, side channel, full curve]"
19,CCN1/C(=C/c2ccc3ccc(C)cc3[n+]2CC)Sc2ccccc21,"inconclusive: 12.6 µM [quencher, side channel, partial curve]"
20,CC1CN(CCCSc2ccc(Cl)cc2)CC(C)O1 (stereo unspecified),inactive
21,CCOc1ccc(/C=C2\SC(N3CCCCC3)=NC2=O)cc1,"inconclusive: 3.55 µM [quencher, side channel, full curve]"

row,SMILES,Potency
1,Cc1cc(NC(=O)/C(C#N)=C/c2ccco2)n(-c2ccccc2)n1,"inconclusive: 12.6 µM [quencher, side channel, partial curve]"
2,Cc1noc(/C=C/c2cccs2)c1S(=O)(=O)N1CCC(C(=O)NCCCN2CCC(C)CC2)CC1,"inconclusive: 31.6 µM [quencher, side channel, single point]"
3,CCOC(=O)c1c(NC(=O)c2ccco2)sc(C(=O)N2CCCC2)c1C,"inconclusive: 39.8 µM [fluorescent, side channel, single point]"
4,O=Cc1cccc(Oc2ccc([N+](=O)[O-])cc2[N+](=O)[O-])c1,"inconclusive: 8.91 µM [quencher, side channel, partial curve]"
5,C/C(=N/NC(=O)CSc1ccccn1)c1ccc([N+](=O)[O-])cc1,"inconclusive: 8.91 µM [quencher, side channel, partial curve]"
6,Cc1oc2cc(O)ccc2c(=O)c1-c1nncn1-c1ccccc1,inactive
7,CCCSc1cc(NCCOC(=O)CCC)c([N+](=O)[O-])c2nonc12,"inconclusive: 10 µM [quencher, side channel, partial curve]"
8,Cc1cc(OCC(=O)Nc2cccc(S(=O)(=O)NC3=NCCCCC3)c2)ccc1Cl,inactive
9,O=C(Nc1nnc(COc2ccc(Cl)cc2)s1)c1ccco1,inactive
10,N/C(=N\OC(=O)c1ccccc1Br)c1cccc([N+](=O)[O-])c1,"inconclusive: 15.8 µM [quencher, side channel, partial curve]"
11,COC(=O)NC(=S)Nc1ccc(Oc2ccc(Cl)cc2Cl)c(Cl)c1,inactive
12,O=C(O)CS/C(=C\c1ccc(F)cc1)c1nc2ccccc2s1,"inconclusive: 39.8 µM [quencher, side channel, single point]"
13,CN(c1ccccc1)S(=O)(=O)c1cccc(NC(=O)CC(C)(C)C)c1,"inconclusive: 2.51 µM [fluorescent, side channel, full curve]"
14,Oc1ccc(Cl)cc1C=Nc1ccccc1Br,"inconclusive: 0.141 µM [quencher, side channel, full curve, poor fit]"
15,CCN1CCN(c2nc(C)c3c(n2)CC(C)CC3=O)CC1 (stereo unspecified),inactive
16,Cc1ccc(CNC(=O)c2cc3c(=O)n4ccccc4nc3n(CC3CCCO3)c2=N)cc1 (stereo unspecified),"inconclusive: 3.55 µM [quencher, side channel, partial curve]"
17,CCOc1ccc2nc(N3CCCN(C(=O)Nc4ccccc4C)CC3)c(C#N)cc2c1,"inconclusive: 25.1 µM [quencher, side channel, partial curve]"
18,Cc1cc(NC(c2cccnc2)c2ccc3cccnc3c2O)no1 (stereo unspecified),"inconclusive: 28.2 µM [quencher, side channel, single point]"
19,N/C(=N\OC(=O)c1ccc(Cl)cc1Cl)c1ccccn1,inactive
20,Cc1nc2c(C(=O)Nc3ccc(N4CCCC(O)C4)cc3)snc2c(=O)[nH]1 (stereo unspecified),"inconclusive: 3.98 µM [quencher, side channel, full curve]"
21,Cc1ccc2nsnc2c1S(=O)(=O)NC1CC1,"inconclusive: 14.1 µM [quencher, side channel, partial curve]"

row,SMILES,Potency
1,CCN(c1ccccc1C(=O)O)S(=O)(=O)c1cccc2nsnc12,"inconclusive: 15.8 µM [quencher, side channel, partial curve]"
2,CN(C)c1ccc(/C=N/NC(=O)c2ccnn2C)cc1,"inconclusive: 20 µM [quencher, side channel, partial curve]"
3,CCn1nc(NS(=O)(=O)c2ccccc2)c2cc3ccccc3nc21,inactive
4,O=C(NCCc1ccccc1)c1ccccc1[N+](=O)[O-],"inconclusive: 31.6 µM [quencher, side channel, single point]"
5,COc1ccc(N2C(=O)/C(=C/c3cccs3)NC2=S)cc1,"inconclusive: 10 µM [quencher, side channel, partial curve]"
6,COc1ccc(CCNC(=O)C(NS(=O)(=O)c2cccc3nsnc23)C(C)C)cc1OC (stereo unspecified),"inconclusive: 20 µM [quencher, side channel, partial curve]"
7,CCOc1ccc(S(=O)(=O)NCCC(=O)N2CCN(c3ccc(OC)cc3)CC2)cc1,inactive
8,COc1cc(/C=N/NC(=O)Nc2cccc3nsnc23)cc(OC)c1OC,"inconclusive: 28.2 µM [quencher, side channel, single point]"
9,CCOC(=O)/C=c1\s/c(=C\c2ccc(C#N)cc2)c(=O)n1CC(=O)NCc1ccco1,inactive
10,O=C(/C=C\Nc1cccc(F)c1)c1cccs1,"inconclusive: 10 µM [quencher, side channel, full curve, poor fit]"
11,COc1cc(/C=C\C(=O)NCc2ccc3[nH]c(C)cc3c2)cc(OC)c1OC,"inconclusive: 14.1 µM [quencher, side channel, partial curve]"
12,CCC(C)NC(=O)c1ccc([N+](=O)[O-])c(Cl)c1 (stereo unspecified),"inconclusive: 0.1 µM [quencher, side channel, full curve, poor fit]"
13,O=C(O)c1cnc2ccccc2n1,"inconclusive: 22.4 µM [quencher, single point]"
14,COc1ccc(N(CC(=O)Nc2ccc(OC)cc2OC)S(=O)(=O)c2ccccc2)cc1,inactive
15,COC(=O)c1cc(COC(=O)c2ccc3ccccc3n2)oc1C,"inconclusive: 15.8 µM [quencher, side channel, partial curve]"
16,CC1CC(C)CN(S(=O)(=O)c2ccc3c(c2)oc(=O)n3CC(=O)NCc2cccnc2)C1 (stereo unspecified),inactive
17,Cn1cc([N+](=O)[O-])c(C(=O)Nc2ccc3c(c2)OCCO3)n1,"inconclusive: 12.6 µM [quencher, side channel, partial curve]"
18,CN(CC(=O)NCCN1CCN(Cc2ccccc2)CC1)S(=O)(=O)c1cccc2nsnc12,"inconclusive: 7.94 µM [quencher, side channel, partial curve]"
19,Cc1sc2nc(C)n(/N=C/c3ccc(O)cc3)c(=O)c2c1C,"inconclusive: 6.31 µM [quencher, side channel, single point]"
